Measurements published in PubChem BioAssay AID504339 (National Center for Advancing Translational Sciences (NCATS), 2011).
Out of some 390,000 compounds screened, about 17,000 (4.4%) were called active. The inconclusive results got no clear call from the source; some entries with a clear call stand among them for comparison. Calls come from the whole dose curve; as a rule, active = well fitted inhibition curve with a large enough effect; inconclusive = small, poorly fitted or top-dose-only effect; inactive = no such curve, though single readings can be large or run the other way. Potencies beside an inconclusive call are fits to weak or partial responses and may not hold up.

Target: Lysine-specific demethylase 4A (Homo sapiens) (UniProt O75164)
Experiment: qHTS Assay for Inhibitors of JMJD2A-Tudor Domain; note: nearly all actives have a fitted effect of over 50% in size
Details: AlphaScreen JMJD2A-Tudor / H3K4me3 peptide binding; activity change, negative = inhibition: at 114 µM (top of the series)
% is set by controls: 0 for no effect and ±100 for the full control effect; potency is the fitted concentration of half-maximal effect; tags give direction and shape of the fitted curve.

Sequence of UniProt O75164 (O75164 whole entry, looked up, the tested form may be a part): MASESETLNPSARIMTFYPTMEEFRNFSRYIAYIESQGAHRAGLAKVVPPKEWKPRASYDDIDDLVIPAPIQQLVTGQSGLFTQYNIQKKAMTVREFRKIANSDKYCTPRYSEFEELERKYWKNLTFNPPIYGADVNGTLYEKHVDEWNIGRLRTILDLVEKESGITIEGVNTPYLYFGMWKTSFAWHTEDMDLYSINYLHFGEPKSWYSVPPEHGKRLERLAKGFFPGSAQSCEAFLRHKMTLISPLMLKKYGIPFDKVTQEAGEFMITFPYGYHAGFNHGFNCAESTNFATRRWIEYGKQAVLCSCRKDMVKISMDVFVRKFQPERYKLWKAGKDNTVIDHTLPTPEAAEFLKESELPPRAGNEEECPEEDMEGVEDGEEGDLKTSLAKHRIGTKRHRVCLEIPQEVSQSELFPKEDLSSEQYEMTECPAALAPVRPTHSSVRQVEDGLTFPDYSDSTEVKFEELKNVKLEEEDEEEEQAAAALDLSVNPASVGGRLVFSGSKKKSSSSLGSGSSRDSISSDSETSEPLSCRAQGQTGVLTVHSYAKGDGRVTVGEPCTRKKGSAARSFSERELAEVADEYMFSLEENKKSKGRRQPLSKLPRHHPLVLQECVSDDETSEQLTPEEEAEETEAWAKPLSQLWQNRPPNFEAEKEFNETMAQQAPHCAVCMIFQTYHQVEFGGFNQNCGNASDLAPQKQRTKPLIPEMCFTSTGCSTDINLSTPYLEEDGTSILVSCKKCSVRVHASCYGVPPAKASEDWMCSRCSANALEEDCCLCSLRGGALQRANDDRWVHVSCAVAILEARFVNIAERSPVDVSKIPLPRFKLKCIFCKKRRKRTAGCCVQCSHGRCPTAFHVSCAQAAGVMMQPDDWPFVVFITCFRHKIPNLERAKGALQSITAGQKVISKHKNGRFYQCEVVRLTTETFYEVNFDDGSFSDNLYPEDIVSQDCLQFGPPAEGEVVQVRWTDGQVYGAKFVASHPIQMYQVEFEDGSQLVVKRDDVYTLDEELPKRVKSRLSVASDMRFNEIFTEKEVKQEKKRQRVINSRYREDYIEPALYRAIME

Potency, active:
CN(C)c1ccc(CC(=O)c2nc3ccccc3s2)cc1 17.8 µM, O=C(O)C1CSC(c2coc3ccccc3c2=O)N1 (stereo unspecified) 25.1 µM, CSCc1nnc(NC(=O)c2ccc(S(=O)(=O)N3CCCCC3C)cc2)o1 (stereo unspecified) 50.1 µM, O=C(COC(=O)COc1ccc(Nc2ccccc2)cc1)NCc1ccco1 56.2 µM, COc1cc(/C=C2\SC(=S)N(NC(=O)c3ccc(O)c(OC)c3)C2=O)ccc1O 56.2 µM, O=c1[nH]sc2ccccc12 31.6 µM, Cc1c(NC(=O)CSc2n[nH]c(=O)n2-c2ccccc2)c(=O)n(-c2ccccc2)n1C 22.4 µM, CCN(CC(=O)Nc1c(C(=O)OC)[nH]c2ccc(Cl)cc12)c1ccc2c(c1)OCO2 56.2 µM, CC(C)(S)[C@@H](N)C(=O)O 3.98 µM, S=c1[nH]nc(-c2ccccn2)n1/N=C/c1ccco1 7.08 µM

Potency, inactive:
CC(C)(C)NC(=O)C(OC(=O)c1cccs1)c1ccc(C#N)cc1 (stereo unspecified), COc1ccc(NC(=O)CSc2c3c(nc4ccccc24)CCC3)c(OC)c1, O=S(=O)(c1ccc(F)cc1)N1CCC(n2c(C(F)(F)F)nc3cccnc32)CC1, CCCCN(C(=O)c1ccc2c(c1)OCCO2)c1c(N)n(CC(C)C)c(=O)[nH]c1=O, C[C@@H]1CN([C@@H](C)CO)C(=O)c2cccc(NC(=O)Nc3ccccc3)c2O[C@H]1CN(C)C(=O)Nc1cccc2ccccc12, Cc1ccc(NC(=O)c2cc(S(=O)(=O)N3CCOCC3)c(Br)s2)cc1, COC1=CC(=O)OC12CCCCC2, Cc1c(P(=S)(c2ccccc2)c2ccccc2)[n+]2ccccc2n1CC(=O)c1ccccc1, COCCN1CCN(C(=O)c2cc(COc3ccc(Cl)cc3OC)on2)CC1, CSCC[C@H](NC(=O)N1CCn2c1nc1ccccc12)C(=O)NCC1CCCO1 (stereo partly specified), O=C(c1ccccc1)c1coc2ccc(O)c(Cl)c12

Potency, inconclusive:
Cc1ccc(Nc2c([N+](=O)[O-])ccc3nonc23)cc1C 6.31 µM [inhibitor, full curve], Cc1cc(C(=O)COC(=O)c2ccc(O)cc2O)c(C)n1-c1ccccc1 14.1 µM [inhibitor, full curve], NC1=NC(=O)C2(COC(c3cccnc3)OC2)S1 (stereo unspecified) 56.2 µM [inhibitor, partial curve], O=C(NCCNC(=O)Oc1cccc2ccccc12)Oc1cccc2ccccc12 50.1 µM [inhibitor, partial curve], COc1ccc(-c2cn3nc(N4CCCC(C(=O)NCc5ccccc5C)C4)sc3n2)cc1 (stereo unspecified) 56.2 µM [inhibitor, partial curve], CCOC(=O)c1c(-c2ccc(C)o2)csc1NC(=O)COC(=O)c1ccc(NC(N)=O)cc1 100 µM [inhibitor, single point], COc1ccc2c(c1OC)C(=O)N1c3ccccc3N=C(c3ccc([N+](=O)[O-])cc3)CC21 (stereo unspecified) 20 µM [inhibitor, full curve], COc1cccc(Nc2sc(C(=O)c3ccc(F)cc3)c(N)c2C(=O)NCc2ccc(C)cc2)c1 17.8 µM [inhibitor, full curve], COc1ccc(N=Nc2c(N)nn(C)c2N)cc1 17.8 µM [inhibitor, full curve, poor fit], CC1C(C#N)=C(SCC(N)=O)NC2=C1C(=O)CC(C)(C)C2 (stereo unspecified) 28.2 µM [inhibitor, single point], COc1ccccc1N1CCN(Cc2ccc(Br)o2)CC1 0.631 µM [inhibitor, full curve, poor fit], COC(=O)c1cc(C(=O)OC)cc(N2C(=O)CC(NNC(=O)c3ccc(C)cc3)C2=O)c1 (stereo unspecified) 89.1 µM [inhibitor, single point], O=C(CN(Cc1ccccc1C(F)(F)F)C(=O)CNC(=O)c1ccco1)NC1CCCC1 89.1 µM [inhibitor, single point], O=C1c2ccccc2NC(c2ccc(-c3cccc(F)c3)o2)N1O (stereo unspecified) 39.8 µM [inhibitor, partial curve], OC(COCc1ccc(Cl)cc1)CN1CCN(c2ccccn2)CC1 (stereo unspecified) 25.1 µM [inhibitor, single point], COC(=O)C1=C(C)N(Cc2ccccc2)C(=NCc2ccc(OC)cc2)N[C@H]1c1cccc(F)c1 35.5 µM [inhibitor, partial curve], NNC(=S)Nc1cccc(-c2n[nH]c(=S)o2)c1 6.31 µM [inhibitor, full curve], CN1CCc2nc3sc(C(=O)Nc4cccc(C#N)c4)c(N)c3cc2C1 56.2 µM [inhibitor, partial curve], O=C1c2ccccc2C(=O)N1Cc1cnc(N2CCN(c3ccccc3)CC2)s1 20 µM [inhibitor, full curve, poor fit], CCOC(=O)CSc1nc(NCc2ccco2)c2ccccc2n1 89.1 µM [inhibitor, partial curve], CCOC(=O)C1=C(O)/C(=C/c2cc(C)n(-c3ccccc3)c2C)N=C1C 44.7 µM [inhibitor, partial curve], Cn1nnnc1NC(=O)c1ccccc1Cl 39.8 µM [inhibitor, single point], CC(NC(=O)NNC(N)=S)(C(F)(F)F)C(F)(F)F 79.4 µM [inhibitor, single point], CC(C)n1cc(CN2CCC(C(=O)Nc3cccc(-c4cccc(Cl)c4)c3)CC2)cn1 50.1 µM [inhibitor, partial curve, poor fit]

Activity change, negative = inhibition, inactive:
COc1cc(C2NC(=O)NC(C)=C2[N+](=O)[O-])cc(OC)c1OC (stereo unspecified) -6.62% [at 11.4 µM]
